Assay results taken from the supplement of paper PMC3334620.
Over roughly 33,000 sequences, “E-score (-0.5 to 0.5)” has its median near -0.036; the highest 2% begin near 0.37. The list shows a part of the results.

Target: T1, Yer064c (UniProt P40041)
T1 sequence: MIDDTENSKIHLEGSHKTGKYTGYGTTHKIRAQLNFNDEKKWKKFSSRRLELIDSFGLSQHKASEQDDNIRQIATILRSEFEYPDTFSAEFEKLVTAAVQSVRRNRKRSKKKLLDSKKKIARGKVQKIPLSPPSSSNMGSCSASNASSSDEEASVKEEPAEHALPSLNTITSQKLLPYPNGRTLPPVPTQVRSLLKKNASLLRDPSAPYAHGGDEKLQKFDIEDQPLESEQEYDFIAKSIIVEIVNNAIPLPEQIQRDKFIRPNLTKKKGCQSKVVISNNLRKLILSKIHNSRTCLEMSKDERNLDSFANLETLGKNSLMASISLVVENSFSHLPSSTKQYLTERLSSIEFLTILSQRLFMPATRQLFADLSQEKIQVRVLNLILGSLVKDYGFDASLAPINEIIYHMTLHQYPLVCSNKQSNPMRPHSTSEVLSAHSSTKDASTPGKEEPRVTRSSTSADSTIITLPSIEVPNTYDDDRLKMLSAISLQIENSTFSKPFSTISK
Assay: PBM E-score (8-mer binding enrichment) (E-score (-0.5 to 0.5)); higher = stronger / more preferred TF binding; most listed sequences are background and not binding sites
Conditions: protein concentration: 200 nM; construct: GST-full length
Summary of the method: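 Masliner-normalised scans of fluorescent anti-GST signal were the basis for scoring. That signal came from GST-tagged yeast transcription factors applied at about 100-200 nM to double-stranded universal all-10-mer Agilent arrays on fresh or once-stripped slides. Each ungapped eight-base word, pooled with its reverse complement, received an E-score from the Universal PBM Analysis Suite.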

Sequence	PBM E-score
CGGATGGC	-0.0498
ACTCCACA	0.181
CTACTCAC	0.22
ATTCGGGC	-0.138
AACGGTTG	-0.142
TCCCTAAA	-0.113
GAGTATAA	0.212
ACGAATTA	-0.0361
AGACGGAA	0.026
AAAGTGAA	-0.0781
AAGTGACT	0.453
CCTGGTGA	0.0406
CAATCTCC	0.0118
AACCCGAC	0.122
CCCGCCAA	-0.29
GGCGCAAA	-0.102
AGCCCAAA	0.141
GCCAGAGC	-0.274
CGGGCGGC	-0.28
ACAGCAGT	-0.0762
AGAGGGAC	-0.0799
CGTGGGTC	0.0625
AAACTCAA	0.149
CGAAGCGA	0.0234
ATGTTTCC	-0.149

Sequence	PBM E-score
AAAATGGA	0.113
CAGTCAGC	0.406
CTTCAAAA	0.113
CATGTACG	-0.0155
ACTCAATA	0.315
GAATCGAA	0.124
GACCGACA	-0.0833
GCAATAAC	-0.142
GCTTTATA	-0.21
AATCGTAC	0.109
AATAGGAC	-0.0659
ATAGTATA	-0.186
CAGCGTTC	-0.0385
GCATGGAA	-0.169
AATGTATA	0.022
ACTGGACA	0.0574
ACTACTCT	0.239
GACCGAGC	-0.216
ACGTGACA	-0.138
AGAAACCT	-0.0388
AGCGTCTA	-0.112
GTCCGTCA	-0.00848
ACACCGAA	-0.00535
TACAACTA	0.0263
AGCAGCAC	-0.202

Sequence	PBM E-score
ATGAAACA	0.0318
CTGTCGTC	-0.139
CTGCTGAA	-0.0226
AGGGGTCG	-0.179
GACCAGCC	-0.238
AACACTAT	0.119
AGTGTCAC	-0.0571
CCGTGCAA	-0.0662
AGAGTAAG	0.0595
GGATGACC	0.114
TGAGACAA	0.0625
AAGGCACT	-0.175
GAACCATA	0.241
CCTTGAAA	-0.0724
ATGCGGTG	-0.114
ATAAGCAA	-0.0114
TGAGTACA	0.376
CCCTATGA	0.0506
CCATTGCG	-0.082
TCATTGGA	0.17
CTCATTAA	0.248
TGATGAAA	-0.0162
GCAGGAAA	-0.141
AATTAGTA	0.103
AGTCTCTA	0.222

Sequence	PBM E-score
CGAAGAAC	0.0391
CTCAGTTA	0.146
CCGGTAGC	-0.018
CTCTCTCC	-0.18
GTGCGAGA	0.103
CGGTCGAG	-0.0852
CTCCCTGC	0.0263
ATTGCACG	0.0596
GAGGACGA	0.0459
ACACCTCG	-0.135
CGCAATAA	-0.0755
CTTGCGGA	-0.0554
ATGTGTGC	0.00354
CATAACGA	-0.0272
TAGTGCAA	0.0408
ACGTAACA	-0.0715
ATCTAAGA	0.0947
ACGGCCGT	-0.281
AAGGGAAC	-0.2
GGACCGAA	-0.00554
ATTACAGG	0.181
ATGACAGA	-0.123
ACATATAA	0.108
AACTACGT	-0.108
GTTAGCCA	0.246

Sequence	PBM E-score
GCCGGCAC	-0.273
GGATGCAC	-0.235
AGTTGGTC	-0.0336
ATTCGAAA	-0.0231
GGGGCCAC	-0.173
CAACAGCG	-0.251
ACGCTCGG	-0.0254
AACGCCCT	-0.191
CGGAGGAG	-0.258
GAGGGACC	-0.296
CTTAAGTC	0.263
CAAATCGC	-0.0553
AAAACGAT	0.0576
CAAGGAGA	-0.00692
ATTATACA	0.108
AGCGACAT	-0.152
CCGAACCG	-0.134
ACCTTTAC	-0.0457
GGCGGTGA	0.119
GCAGTCGA	-0.0557
ACGGCTAA	0.00286
TATCAACA	0.154
CGCGCCCA	-0.0669
TAACTTAA	0.154
GAGACAAA	0.00213

Sequence	PBM E-score
CTTAATAA	0.136
AACAGTGC	-0.188
CACGAGTG	-0.125
GAAATAAC	0.0935
ACAGAAAG	0.107
AGAGTGTC	0.101
CTCAAAGA	0.139
CAGGTCCC	-0.355
AGCACATG	0.15
GTATAGTA	-0.12
ATATGCAT	-0.153
ATGAAGTA	-0.0139
AGTTCAGC	0.0111
AATCTCGT	0.154
CCTCACAA	0.038
TAAAAATA	0.205
GAATATAC	0.0606
GTCGTCAA	0.113
CGATTGGA	0.081
GGGCACTA	-0.21
ACTATAAA	0.175
ATATCTTG	0.143
AATCGACG	0.0737
AACAACAG	0.0614
CAAGGACA	-0.125

Sequence	PBM E-score
CATAGTCG	0.374
CTGGTAGC	-0.149
ACCGGACG	0.0393
ACCCTCCG	-0.227
CGTATTGA	0.139
AAGAATGC	0.0688
AGCGCTTG	-0.094
GTGGTAAC	-0.0786
ATATGGAA	0.00587
CGTCAAAA	-0.0525
ACGACTAC	0.415
GCTGTGAC	0.225
ATCCTCCA	-0.0903
TCTGTTCA	-0.0445
CTATAGGA	-0.0485
ACACCCCA	-0.0167
CAACAGTG	-0.139
CTACTACA	0.119
ACTATGAG	0.334
CGATTGAG	0.23
GAATTATA	-0.106
AATGTCGA	-0.145
